# Assay results from PubChem BioAssay (Tox21).
# Inconclusive means that the source gave no clear call. Such entries were picked first, then a sample of the others. Potencies of inconclusive entries are doubtful fits and often do not repeat. The source made the active and inactive calls. The call rests on the fitted dose curve; in most records, active means well fitted cell-killing curve with a large enough effect in the repeat runs; inconclusive means weak or mixed curves, or effect the other way; inactive means no such curve, though single readings can be large or run the other way.
# Experiment: qHTS assay to identify small molecule antagonists of the peroxisome proliferator-activated receptor gamma (PPARg) signaling pathway - cell viability counter screen (AID 743194); further: nearly all actives have a fitted effect of over 55% in size
# Conditions: PPARg-bla HEK293H viability, CellTiter-Glo luminescence, 17 h, co-treated with 50 nM rosiglitazone; series mostly up to 62.6 µM
# Method in brief: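 Cytotoxicity counter screen in PPARg-bla HEK293H cells, same wells as reporter assay. Compounds plus 50 nM rosiglitazone (final) for 17 h at 37 C, then viability read by CellTiter-Glo luminescence.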
# Potency means the concentration at half of the fitted maximal effect; tags describe the fitted curve by direction and shape.
row,SMILES,Potency
1,S=C([S-])NCCNC(=S)[S-].S=C([S-])NCCNC(=S)[S-].[Mn+2].[Zn+2],"inconclusive: 0.0952 µM [cytotoxic, partial curve, poor fit]"
2,Nc1ccc2c3c(cccc13)-c1ccccc1-2,active: 49.5 µM
3,O=C(CCCN1CCN(c2ccc(F)cc2)CC1)NC1c2ccccc2CSc2ccccc21 (stereo not given),"inconclusive: 13.3 µM [cytotoxic, full curve]"
4,CCOC(=O)c1ccc(C2CCC(NC[C@H](O)COc3ccc(O)c(NS(C)(=O)=O)c3)CC2)cc1 (stereo not given in full),"inconclusive: 56.9 µM [cytotoxic, single point]"
5,CC(C)(C)c1csc(-c2cc3cc(OCc4ccccc4CC(=O)O)ccc3o2)n1,"inconclusive: 49 µM [cytotoxic, partial curve, poor fit]"
6,OCCN1CCN(CCCN2c3ccccc3C=Cc3ccccc32)CC1,"inconclusive: 0.0531 µM [cytotoxic, full curve, poor fit]"
7,CC(C)(C)S,inactive
8,COc1c(C)c2c(c(O)c1C/C=C(\C)CCC(=O)OCCN1CCOCC1)C(=O)OC2,"inconclusive: 2.98 µM [cytotoxic, partial curve, poor fit]"
9,CN(CCCN1c2ccccc2CCc2ccccc21)CC(=O)c1ccc(Cl)cc1,inactive
10,O=C(N[C@@H](c1ccccc1)[C@@H]1CCCCN1)c1cccc(C(F)(F)F)c1Cl,"inconclusive: 3.89 µM [cytotoxic, full curve]"
